In publication PMC4336329 (PLoS ONE, 2015):
Among all 310,000 compounds or so, about 14,000 (4.5%) showed an effect of 50% or more. The effect is printed as a negative number. Some of the results follow.

What follows are compounds tested against human ether-à-go-go-related gene (hERG) potassium channel (human, UniProt Q12809) (assay: primary screen, population patch clamp on CHO cells stably expressing hERG).
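Note: peak tail current of the secondary pulse compared with the same well before compound.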

Chain of human ether-à-go-go-related gene (hERG) potassium channel (Q12809 whole entry, looked up): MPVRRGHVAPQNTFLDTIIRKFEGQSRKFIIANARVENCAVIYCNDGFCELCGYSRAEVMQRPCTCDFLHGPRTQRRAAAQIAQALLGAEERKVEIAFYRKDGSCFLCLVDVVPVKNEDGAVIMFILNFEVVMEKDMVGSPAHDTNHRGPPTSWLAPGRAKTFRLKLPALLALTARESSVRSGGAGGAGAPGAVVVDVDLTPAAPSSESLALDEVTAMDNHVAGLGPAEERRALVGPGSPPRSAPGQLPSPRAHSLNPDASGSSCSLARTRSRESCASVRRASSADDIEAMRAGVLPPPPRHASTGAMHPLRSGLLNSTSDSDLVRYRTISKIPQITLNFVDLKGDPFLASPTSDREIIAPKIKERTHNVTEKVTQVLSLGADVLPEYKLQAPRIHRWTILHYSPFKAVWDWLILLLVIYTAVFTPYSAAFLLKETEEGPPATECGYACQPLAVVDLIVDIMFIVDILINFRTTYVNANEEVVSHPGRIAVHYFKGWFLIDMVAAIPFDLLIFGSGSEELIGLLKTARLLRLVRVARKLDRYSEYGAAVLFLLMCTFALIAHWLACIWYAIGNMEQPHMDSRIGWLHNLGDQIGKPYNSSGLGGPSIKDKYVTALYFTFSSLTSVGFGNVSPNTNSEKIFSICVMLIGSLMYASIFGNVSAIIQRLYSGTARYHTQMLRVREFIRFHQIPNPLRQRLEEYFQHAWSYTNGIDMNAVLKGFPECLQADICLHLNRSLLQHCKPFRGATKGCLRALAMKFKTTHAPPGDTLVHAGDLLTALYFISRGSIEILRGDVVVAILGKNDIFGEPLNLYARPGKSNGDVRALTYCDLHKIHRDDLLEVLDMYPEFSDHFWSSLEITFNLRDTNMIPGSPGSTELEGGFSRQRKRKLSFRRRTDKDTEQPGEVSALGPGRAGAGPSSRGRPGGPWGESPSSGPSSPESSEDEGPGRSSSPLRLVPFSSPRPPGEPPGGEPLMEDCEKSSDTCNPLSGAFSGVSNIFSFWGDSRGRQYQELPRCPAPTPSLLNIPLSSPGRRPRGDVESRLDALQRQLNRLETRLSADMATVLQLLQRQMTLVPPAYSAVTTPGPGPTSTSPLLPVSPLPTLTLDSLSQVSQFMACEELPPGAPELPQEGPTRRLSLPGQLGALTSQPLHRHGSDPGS

SMILES | hERG current change (%, negative = inhibition) at 10uM
Cc1cccc(-c2noc(CN(C(=O)c3c(-c4ccccc4Cl)noc3C)C(C)C)n2)c1 | -3.05%
Cc1ccc(/C=C/C(=O)c2ccc([N+](=O)[O-])o2)cc1 | -6.32%
O=S(=O)(NCCSc1ccccc1)c1ccc2c(c1)OCCO2 | 3.3%
c1ccc(-c2nnsc2-c2ncc[nH]2)cc1 | 6.51%
NC1=NC(=O)C(Cc2ccc(F)cc2)S1 (centres unmarked) | 3.59%
CCCN(CCC)c1c([N+](=O)[O-])c(=O)oc2ccccc12 | -5.77%
Cn1c(=O)c2c(nc(OC/C=C/c3ccccc3)n2C)n(C)c1=O | 2.28%
CN(CC(=O)NCc1ccncc1)S(=O)(=O)c1ccc(Br)cc1 | -13.4%
CCOC(=O)N1CCN(C(=O)c2cc(COc3cccc(C(C)=O)c3)on2)CC1 | 1.62%
Cc1ccc(CS(=O)(=O)CCC(=O)NCCN(C)Cc2ccccc2)cc1 | -17.8%
O=C(OCc1c(-c2ccccc2)ncc2ccccc12)c1ccc(Br)cc1 | 20.8%
Cc1cc2ncn(/N=C/c3ccc([N+](=O)[O-])o3)c2cc1C | -0.858%
C/C(Cl)=C/Cn1c(NCCCn2ccnc2)nc2c1c(=O)[nH]c(=O)n2C | -10.5%
COc1ccc(OC)c(/C=C2\S/C(=N/NC(=O)c3ccc4ccccc4c3)NC2=O)c1 | 16.5%
Oc1ccc2ccccc2c1C=NC12CN3CCN(CN(C3)C1)C2 | 6.78%
CCCNc1nc(Cl)nc(Nc2ccc(Cl)cc2)n1 | 12.6%
COC(=O)C(Cc1ccccc1)NC(=O)CC(C)CC(=O)Nc1ccc(C)cc1 (centres unmarked) | 5.88%
Cc1cccc(CN2CCOCCS2(=O)=O)c1 | 10.2%
Cc1c(OCC(=O)NCC2CCC(C(=O)O)CC2)ccc2c3c(c(=O)oc12)CCC3 (centres unmarked) | 4.29%

SMILES | hERG current change (%, negative = inhibition) at 10uM
Cc1cccc(NC(=O)CCSc2nnc(Cc3ccccc3)o2)c1 | 4.48%
COc1cccc(CN2CCN(Cc3ccc(C#CC(C)(C)O)s3)CC2CCO)c1 (centres unmarked) | -41.2%
COc1cc(OC)nc(-n2ncc(OC)c(Br)c2=O)n1 | -8.39%
Cc1cc(C)nc(NC(=O)CSc2ncccn2)n1 | 17.9%
CCCCNC(=O)CCCn1c(=S)[nH]c2cc3c(cc2c1=O)OCO3 | 15.1%
CCNC(=O)CN(Cc1ccccc1)S(=O)(=O)c1ccccc1 | -2.82%
CC(C)CNS(=O)(=O)c1ccc(CCC(=O)N2CCC(C(N)=O)CC2)cc1 | 7.64%
COc1ccc(S(N)(=O)=O)cc1C(=O)OCC(=O)NC(C)(C#N)C1CC1 (centres unmarked) | 21.3%
COc1ccc(-c2cc(C(=O)N3CCN(c4ccccc4)CC3)c3ccccc3n2)cc1 | 5.37%
Cc1cc(-n2c(C)cc(C(=O)CN3C(=O)NC4(CCCCC4C)C3=O)c2C)no1 (centres unmarked) | -17.3%
COc1ccc2c(CC(=O)OCC(=O)Nc3cccc(S(N)(=O)=O)c3)coc2c1 | 4.07%
Cc1ccc(C(=O)N[C@H](C(=O)OCc2nnc(-c3ccccc3)o2)C(C)C)cc1 | -8.14%
COc1cc(C)ccc1Oc1nc(-c2ccccc2O)nc2ccccc12 | 15.4%
CCn1c(SCc2ccc(F)cc2)nc2c(c1=O)SCC2 | -0.22%
CC(C)CN(C(=O)COC(=O)c1ccc([N+](=O)[O-])o1)C1CCS(=O)(=O)C1 (centres unmarked) | -31.8%
Cc1sc(NC(=O)C2CCCO2)c(C#N)c1C (centres unmarked) | 14.1%
COc1ccc(CCNC(=O)c2cc(=O)c3ccc(C)cc3o2)cc1OC | 0.816%
COc1ccc(-c2cccc(NS(=O)(=O)c3cc([N+](=O)[O-])ccc3C)c2)nn1 | -9.14%
COc1cccc(CN(CC2CCCO2)C(=O)c2cc3ccccc3oc2=O)c1 (centres unmarked) | 10.1%

SMILES | hERG current change (%, negative = inhibition) at 10uM
CC1CN(C2CCN(C(=O)c3ccccc3Cl)CC2)CC(C)O1 (centres unmarked) | -8.79%
Cc1ccc(C(=O)Nc2ncccc2O)o1 | 17.6%
O=[N+]([O-])c1ccc(NCc2ccc3c(c2)OCO3)cc1 | 68.6%
O=C(Nc1ccc(C(=O)O)cc1)/C(=C\c1ccco1)NC(=O)c1ccccc1Cl | 5.63%
O=C(O)CCc1nn2c3ccccc3n(Cc3ccccc3)c2nc1=O | 27%
NC(=O)c1c(NC(=O)C(=O)N2CCOCC2)sc2c1CCC2 | 13.1%
Cc1cc2ccccn2c1C(=O)c1ccc(Cl)c([N+](=O)[O-])c1 | 19.3%
COc1ccc(S(=O)(=O)N(CC(=O)NC2CC2)C2CCCCC2)cc1Cl | -10.9%
O=c1c2cc(NC(=S)N3CCCC3)ccc2nc2n1CCCCC2 | -28%
O=C(Nc1ccc(F)cc1Cl)C1=COCCO1 | -5.63%
O=C(O)c1cccc(N/N=C(\N=Nc2ccccc2)c2ccccc2)c1 | 14.2%
COc1ccc(-c2csc(NC(=O)/C(N=Nc3ccccc3)=C(\C)O)n2)cc1 | 37.4%
Cc1cccc(N2CCN(C(=O)CCS(=O)(=O)c3ccc4c(c3)NC(=O)C(C)S4)CC2)c1C (centres unmarked) | 29%
O=C(CCCN1C(=O)CSc2ncccc21)N1CCN(c2cccc(C(F)(F)F)c2)CC1 | -56.5%
Cc1ccc(-n2cc(CN(C)Cc3nccn3C)c(-c3ccc(F)cc3)n2)cc1 | -37.6%
Cc1ccc(CN2CCN(Cc3ccc(C)s3)CC2CCO)cc1 (centres unmarked) | -73.3%
Cc1ccc(NC(=S)Nc2c(C)n(C)n(-c3ccccc3)c2=O)cc1Cl | -22.7%
CCOC(=O)c1cc(-c2ccccc2C)nn1Cc1cc(C)no1 | -4.63%
